Where a chain is given by its changes, count along the chain named. Like-named read-outs stand apart in the source and are kept apart here.
B1: DOMAIN_20767 (protein, listed as Sus scrofa)
chain: CKESVIFKDVCVNFSLEEWECLDLTQRNLYRCVMLENYSNLVSVGLSIPKPDVISLLEQGKEPWGVFDSEMTRGLNQDCGS
B2: DOMAIN_362 (protein, listed as Pan paniscus)
chain: MALRSVMFSDVSIDFSPEEWEYLDLEQKDLYRDVMLENYSNLVSLAGCFISKPDVISSLEQGKEPWKVVRKGRRQYPDLET
B3: DOMAIN_20565 (protein, listed as Suricata suricatta)
chain: KPGAVSFADVAVYFSPEEWGCLRPAQRALYRDVMRETYGHLGALGFRGTKPALICWVEEEADLWGPEARDPEVGACLTEAD
B4: DOMAIN_20915 (protein, listed as Mandrillus leucophaeus)
chain: GPLTFRDVAIEFSQEEWKSLDPVQKALYWDVMLENYRNLVFLGILPKCMTKELPPIGNSNTGEKFQRVMLERHECYDIENF
B5: DOMAIN_20540 (protein, listed as Mandrillus leucophaeus)
chain: VHGSVTFRDVAIDFSQEEWECLQPEQRTLYRDVMLENYSHLISLGSSVSKPDVITLLEQEKEPWIVVRKETSRWYPDLESK
B6: DOMAIN_20729 (protein, listed as Mandrillus leucophaeus)
chain: B5 chain with E25D, V48I, K61Q, I65M, S72N
B7: DOMAIN_20835 (protein, listed as Suricata suricatta)
chain: KPGVLTFADVAVYFSSEEWGCLRPAQRALYRDVMRETYGHLGALGFPGPKPALISWMEQESEESEAWSPAAKDPEEGESLG
B8: DOMAIN_20601 (protein, listed as Sus scrofa)
chain: SQVSVTFEDVAVLFSRDEWRRLGPSQKNLYQDVMLENYSNLVSLGLPFSKPKVISLLQQGEDPWKVEKESPGSFPGCKSSP
B9: DOMAIN_20652 (protein, listed as Neophocaena asiaeorientalis)
chain: SQGSVTFRDVAVDFSREEWEWLQPAQRDLYRHVMLENYGHLVSLGLNISKPHVVSLLEQGKEPWLGKDASRGLFSASESNG
B10: DOMAIN_20716 (protein, listed as Suricata suricatta)
chain: QAEVTFEDVAVLFSREEWGRLGPAQRGLYRDVMLETYRNLASLGAGRAGSKPGVITQLERGDEPWVLDAQGAKGKGQPRVS
B11: DOMAIN_344 (protein, listed as Pan paniscus)
chain: MSQVTFSDVAIDFSHEEWACLDSAQRDLYKDVMVQNYENLVSVGLSVTKPYVIMLLEDGKEPWMMEKKLSKDWESRWENKE
B12: DOMAIN_20545 (protein, listed as Sus scrofa)
chain: CKESVIFKDVCVNFSLEEWECLDLTQRNLYRCVMLENYSNLVSVVGLSIPKPDVISLLEQGKEPWGVFDSEMTRGLNQDCG
B13: DOMAIN_20674 (protein, listed as Mandrillus leucophaeus)
chain: SKAPITFGDLAIYFSQEEWEWLSPIQKDLYEDVMLENYRNLVSLGLSFRRPNVITLLEKGKAPWMIEPVRRRRAPELTEAS
B14: DOMAIN_20667 (protein, listed as Suricata suricatta)
chain: AHGSLMFSDVSIVFSQEEWECLDLEQRDLYRDVMLENYTNLVSLGCFISKPDVISLLEQGKEPWKVVRKRRGQYADLETRY
B15: DOMAIN_20561 (protein, listed as Chrysochloris asiatica)
chain: RREPVTFEDVAVYFSENEWSSLAPAQRALYRDVMLENYGAVASLAFSFPKPALISQLERGEAPWSLAPQGALDGEGSRGIS

System: HBEGF locus
Assay type: cell-based, human
Settings: high-throughput screen of dXR repression of the HBEGF gene
[1] = abundance of each domain in the library before vs after diphtheria toxin selection, listed domains met p-value <0.01 and log2(fold change) >2
[2] = change in abundance of each domain in the library before and after diphtheria toxin selection

Row | Molecule | Log2 (fold change) [1] | Log2 (fold change) [2]
1 | B1 | 3.1224 | 
2 | B2 |  | 3.6736
3 | B3 | 3.148 | 
4 | B4 | 2.4373 | 
5 | B5 | 2.8477 | 
6 | B6 | 2.5535 | 
7 | B7 | 3.0025 | 
8 | B8 | 2.9097 | 
9 | B9 | 2.7283 | 
10 | B10 | 3.6174 | 
11 | B11 |  | 2.4948
12 | B12 | 2.711 | 
13 | B13 | 3.3115 | 
14 | B14 | 3.7485 | 
15 | B15 | 3.8309 | 

— patent US12551573B2, “Compositions and methods for the targeting of PCSK9” (Scribe Therapeutics Inc., priority 2022, dated 2026)
